{"source": "paper PMC4336329", "about": "(PLoS ONE, 2015)", "note": "The campaign covered roughly 310,000 compounds. About 2,200 (0.71%) showed an effect of 50% or more. Effects have a minus sign here. Some of the results follow."}
{"target": "human ether-à-go-go-related gene (hERG) potassium channel (human, UniProt Q12809)", "sequence (Q12809 whole entry, looked up)": "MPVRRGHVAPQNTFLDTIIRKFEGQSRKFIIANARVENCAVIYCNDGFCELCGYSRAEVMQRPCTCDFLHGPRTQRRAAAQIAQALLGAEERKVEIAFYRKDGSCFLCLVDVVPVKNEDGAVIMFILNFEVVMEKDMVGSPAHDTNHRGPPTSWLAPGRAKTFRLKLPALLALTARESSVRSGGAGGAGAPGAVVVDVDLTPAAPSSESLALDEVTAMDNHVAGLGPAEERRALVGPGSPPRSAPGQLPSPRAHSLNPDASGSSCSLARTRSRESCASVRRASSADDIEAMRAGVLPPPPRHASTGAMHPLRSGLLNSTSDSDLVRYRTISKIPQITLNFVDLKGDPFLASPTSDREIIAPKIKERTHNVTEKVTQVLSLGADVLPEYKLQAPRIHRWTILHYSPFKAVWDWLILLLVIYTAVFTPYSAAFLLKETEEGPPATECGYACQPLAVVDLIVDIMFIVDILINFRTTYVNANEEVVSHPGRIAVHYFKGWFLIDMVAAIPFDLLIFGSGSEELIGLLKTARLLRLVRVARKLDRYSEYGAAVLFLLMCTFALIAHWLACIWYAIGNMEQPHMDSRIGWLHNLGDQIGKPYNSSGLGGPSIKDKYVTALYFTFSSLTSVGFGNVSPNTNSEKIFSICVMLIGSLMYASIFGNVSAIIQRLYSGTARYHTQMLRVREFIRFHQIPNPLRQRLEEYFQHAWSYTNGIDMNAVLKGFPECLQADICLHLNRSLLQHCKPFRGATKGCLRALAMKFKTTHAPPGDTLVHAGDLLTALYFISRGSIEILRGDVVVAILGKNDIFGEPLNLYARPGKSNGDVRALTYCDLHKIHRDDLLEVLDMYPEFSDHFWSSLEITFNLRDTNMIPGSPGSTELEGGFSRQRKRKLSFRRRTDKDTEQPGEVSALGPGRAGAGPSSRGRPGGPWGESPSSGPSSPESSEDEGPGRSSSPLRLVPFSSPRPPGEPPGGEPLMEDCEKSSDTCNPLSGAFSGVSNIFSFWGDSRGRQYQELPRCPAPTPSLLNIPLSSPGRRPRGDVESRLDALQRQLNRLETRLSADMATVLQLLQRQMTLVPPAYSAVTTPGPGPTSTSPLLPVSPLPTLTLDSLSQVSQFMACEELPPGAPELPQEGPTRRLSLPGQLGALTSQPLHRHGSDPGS", "assay": "primary screen, population patch clamp on CHO cells stably expressing hERG", "units": {"hERG current change (%, negative = inhibition) at 1uM": "%"}}
{"molecule": "O=C(O)c1cn(Cc2ccccc2)c2ccc(Cl)cc2c1=O", "hERG current change (%, negative = inhibition) at 1uM": -84.4}
{"molecule": "COCCn1c(N)c(C(=O)NCc2cccs2)c2nc3ccccc3nc21", "hERG current change (%, negative = inhibition) at 1uM": 6.75}
{"molecule": "Cc1nc(N2CCC(C)CC2)c2c(C)c(C(=O)Nc3cc(F)ccc3C)sc2n1", "hERG current change (%, negative = inhibition) at 1uM": 8.33}
{"molecule": "CS/C(=N\\S(=O)(=O)c1cccs1)Nc1ccc(N2CCOCC2)cc1", "hERG current change (%, negative = inhibition) at 1uM": 9.03}
{"molecule": "CCc1nnc(NC(=O)c2ccc(-c3ccc(F)cc3)o2)s1", "hERG current change (%, negative = inhibition) at 1uM": 7.51}
{"molecule": "COc1ccccc1NCC(=O)N/N=C(\\C)c1cccs1", "hERG current change (%, negative = inhibition) at 1uM": 9.31}
{"molecule": "COc1cccc(CN2CCN(Cc3nc4c(s3)CCCC4)CC2CCO)c1", "note": "(stereo not drawn)", "hERG current change (%, negative = inhibition) at 1uM": -16}
{"molecule": "CCN(CC(=O)N1CCCCCC1)S(=O)(=O)c1ccc(C)cc1", "hERG current change (%, negative = inhibition) at 1uM": 19.6}
{"molecule": "O=C1OC(c2ccccc2)=NC12CC2c1ccc(Cl)cc1", "note": "(stereo not drawn)", "hERG current change (%, negative = inhibition) at 1uM": 0.408}
{"molecule": "O=C(CSc1nnc(C2COc3ccccc3O2)o1)Nc1nccs1", "note": "(stereo not drawn)", "hERG current change (%, negative = inhibition) at 1uM": 6.28}
{"molecule": "COc1cccc(/C=N/NC(=O)C(=O)Nc2ccccc2OC(F)(F)C(F)F)c1O", "hERG current change (%, negative = inhibition) at 1uM": 10.3}
{"molecule": "Cc1ccc(NC(=O)CSc2nnc(-c3cc(C)[nH]n3)n2N)c(C)c1", "hERG current change (%, negative = inhibition) at 1uM": 3.36}
{"molecule": "C/C(CC(=O)Nc1ccccc1F)=N\\NC(=O)Cc1ccc(Cl)cc1", "hERG current change (%, negative = inhibition) at 1uM": 9.61}
{"molecule": "CCn1nnnc1NCc1cccn1C", "hERG current change (%, negative = inhibition) at 1uM": 19.7}
{"molecule": "CCOC(=O)C1CCCN(C(=O)c2cc(-c3ccccc3)on2)C1", "note": "(stereo not drawn)", "hERG current change (%, negative = inhibition) at 1uM": 3.94}
{"molecule": "CC1CCCC(NCC(=O)Nc2ccc(C(N)=O)cc2)C1C", "note": "(stereo not drawn)", "hERG current change (%, negative = inhibition) at 1uM": 5.23}
{"molecule": "COc1cc(NC(=O)C2CC(=O)N(Cc3ccco3)C2)cc(OC)c1", "note": "(stereo not drawn)", "hERG current change (%, negative = inhibition) at 1uM": 2.39}
{"molecule": "CCN(C(=O)COC(=O)c1ccccc1SCC(=O)NC1CCCCCCC1)C1CCS(=O)(=O)C1", "note": "(stereo not drawn)", "hERG current change (%, negative = inhibition) at 1uM": 4.61}
{"molecule": "Cc1nc2ccccc2nc1OCC(=O)NCC(F)(F)F", "hERG current change (%, negative = inhibition) at 1uM": 12.9}
{"molecule": "COc1cccc(CCc2nc3ccccc3c(=O)n2N)c1", "hERG current change (%, negative = inhibition) at 1uM": 10.6}
{"molecule": "Cc1sc2nc(-c3ccccn3)[nH]c(=O)c2c1-c1ccccc1", "hERG current change (%, negative = inhibition) at 1uM": 21.8}
{"molecule": "CCOCCN1CCN(c2nnc3n2-c2ccc(Cl)cc2C(c2ccccc2Cl)=NC3)CC1.O=CO", "hERG current change (%, negative = inhibition) at 1uM": -57.6}
{"molecule": "CC(C)[C@H](N)c1nnc2n1N=C(c1ccc(Cl)cc1)CS2.Cl", "hERG current change (%, negative = inhibition) at 1uM": 8.31}
{"molecule": "CCOc1cc2[nH]c(=O)n(CCCCC(=O)NC3CCCCCC3)c(=O)c2cc1OCC", "hERG current change (%, negative = inhibition) at 1uM": 4.74}
{"molecule": "CC(OC(=O)C1CC(=O)N(Cc2ccco2)C1)C(=O)Nc1ccccc1[N+](=O)[O-]", "note": "(stereo not drawn)", "hERG current change (%, negative = inhibition) at 1uM": -9.36}
{"molecule": "O=C(CSc1nnc(NC(=O)c2cccc(F)c2)s1)NCC1CCCO1", "note": "(stereo not drawn)", "hERG current change (%, negative = inhibition) at 1uM": 13.3}
{"molecule": "CCOc1cccc(N2C(=O)CC(N3CCN(c4ccc(S(=O)(=O)CC)cc4)CC3)C2=O)c1", "note": "(stereo not drawn)", "hERG current change (%, negative = inhibition) at 1uM": 9.61}
{"molecule": "CCCCCCC(=O)N/N=C/c1c(O)n(C2CC2)c(=S)[nH]c1=O", "hERG current change (%, negative = inhibition) at 1uM": 8.68}
{"molecule": "COc1ccc(Cl)cc1NC(=O)CN(C)Cc1ccc(OC)c(OC)c1", "hERG current change (%, negative = inhibition) at 1uM": -1.46}
{"molecule": "CCCCN(CCCC)S(=O)(=O)c1ccc(N2CCCC2=O)c([N+](=O)[O-])c1", "hERG current change (%, negative = inhibition) at 1uM": 8.28}
{"molecule": "O=C(Nn1cnnc1)c1ccc([N+](=O)[O-])cc1Cl", "hERG current change (%, negative = inhibition) at 1uM": 9.39}
{"molecule": "Cl.O=C(CSc1nc2ccccc2[nH]1)N1CCN(C(=O)c2ccco2)CC1", "hERG current change (%, negative = inhibition) at 1uM": -1.54}
{"molecule": "CC(C)NP(=O)(NC(C)C)OP(=O)(NC(C)C)NC(C)C", "hERG current change (%, negative = inhibition) at 1uM": 8.33}
{"molecule": "N#C/C(=C\\c1ccc(-c2cccc([N+](=O)[O-])c2)o1)c1nnc(N2CCOCC2)n1-c1ccccc1", "hERG current change (%, negative = inhibition) at 1uM": 2.99}
{"molecule": "COc1ccc(C2=NCCn3cccc32)c(OC)c1", "hERG current change (%, negative = inhibition) at 1uM": -7.59}
{"molecule": "CCN(C(=O)COC(=O)c1[nH]c(C)c(C(C)=O)c1C)C1CCS(=O)(=O)C1", "note": "(stereo not drawn)", "hERG current change (%, negative = inhibition) at 1uM": -0.793}
{"molecule": "O=C(CSc1nccc(=O)[nH]1)N1c2ccccc2CCc2ccccc21", "hERG current change (%, negative = inhibition) at 1uM": 15}
{"molecule": "COC(=O)c1ccc(NC(=O)c2cn(-c3ccccc3)nc2-c2ccncc2)cc1", "hERG current change (%, negative = inhibition) at 1uM": 3.71}
{"molecule": "CCc1nnc(SCc2ccc(C(=O)OC)o2)n1N.Cl", "hERG current change (%, negative = inhibition) at 1uM": 14.7}
{"molecule": "COc1cc(OC)cc(C(=O)N[C@H](C(=O)NCCc2c[nH]c3ccccc23)C(C)C)c1", "hERG current change (%, negative = inhibition) at 1uM": 9.87}
{"molecule": "C=CCOC(=O)CCCC(=O)NC1CCCCC1", "hERG current change (%, negative = inhibition) at 1uM": 2.48}
{"molecule": "O=S(=O)([N-]c1nc2ccccc2nc1-[n+]1ccccc1)c1ccc(F)cc1", "hERG current change (%, negative = inhibition) at 1uM": 12.1}
{"molecule": "CNC(=O)/C(C#N)=C1\\SC(Cc2ccc(F)cc2)C(=O)N1c1ccccc1C", "note": "(stereo not drawn)", "hERG current change (%, negative = inhibition) at 1uM": 4.1}
{"molecule": "CCOC(=O)N1CCN(S(=O)(=O)/C=C/c2ccccc2)CC1", "hERG current change (%, negative = inhibition) at 1uM": -10.2}
{"molecule": "CC(Oc1ccccc1F)C(=O)NNC(=O)CCS(=O)(=O)c1ccccc1Cl", "note": "(stereo not drawn)", "hERG current change (%, negative = inhibition) at 1uM": -4.95}
{"molecule": "Cc1cc2occ(CC(=O)Nc3nnc(C4CC4)s3)c2cc1C", "hERG current change (%, negative = inhibition) at 1uM": 9.49}
{"molecule": "CCN1CCN(S(=O)(=O)c2ccc(Cl)c(C(=O)N(C)Cc3ccccc3)c2)CC1", "hERG current change (%, negative = inhibition) at 1uM": 1.46}
{"molecule": "Cc1cc(C)n2nc(C(=O)OCC(=O)NC(=O)c3ccccc3)nc2n1", "hERG current change (%, negative = inhibition) at 1uM": 12.1}
{"molecule": "CC1=C(C(=O)OC2CCCCC2)C(c2ccccc2F)NC(=O)N1", "note": "(stereo not drawn)", "hERG current change (%, negative = inhibition) at 1uM": 14.9}
{"molecule": "NNC(=O)c1csc(-c2ncc(C(F)(F)F)cc2Cl)n1", "hERG current change (%, negative = inhibition) at 1uM": 11}
{"molecule": "COc1ccc(C)cc1NC(=O)C(=O)NCc1ccncc1", "hERG current change (%, negative = inhibition) at 1uM": 9.54}
{"molecule": "O=C(NCc1ccc(Cl)cc1)c1cc2ccccc2oc1=O", "hERG current change (%, negative = inhibition) at 1uM": 9.53}
{"molecule": "O=C(Cc1ccsc1)NNC(=O)c1cccc(Cl)c1", "hERG current change (%, negative = inhibition) at 1uM": 14.3}
{"molecule": "CCOC(=O)N1CCN(C(=O)c2cn(C)c3ccc(S(=O)(=O)N4CCC(C)CC4)cc3c2=O)CC1", "hERG current change (%, negative = inhibition) at 1uM": 5.1}
{"molecule": "CCSc1nnc(C(N)Cc2ccccc2)o1.Cl", "note": "(stereo not drawn)", "hERG current change (%, negative = inhibition) at 1uM": 24.5}
{"molecule": "CCOC(=O)c1ccc(NCc2ccc3c(c2)OCO3)cc1", "hERG current change (%, negative = inhibition) at 1uM": 16.1}
{"molecule": "CS(=O)(=O)Cc1nc2ccccc2oc1=O", "hERG current change (%, negative = inhibition) at 1uM": 13.7}
